The full ranking holds about 33,000 sequences; the median of “E-score (-0.5 to 0.5)” is about -0.054, and the highest 2% start at about 0.39. Some of the results follow.
Molecular target: Ylr278c (UniProt Q05854)
Experiment: PBM E-score (8-mer binding enrichment) (E-score (-0.5 to 0.5)); higher = stronger / more preferred TF binding; most listed sequences are background and not binding sites
Details: protein concentration: 200 nM; construct: GST-DNA-binding domain
Summary of the method: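 Masliner-normalised scans of fluorescent anti-GST signal were the basis for scoring. That signal came from GST-tagged yeast transcription factors applied at about 100-200 nM to double-stranded universal all-10-mer Agilent arrays on fresh or once-stripped slides. Each ungapped eight-base word, pooled with its reverse complement, received an E-score from the Universal PBM Analysis Suite.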

| Sequence | PBM E-score |
| --- | --- |
| AGTGCGCC | 0.0447 |
| CGGCTATA | 0.172 |
| AACCCCTT | -0.071 |
| CTCCAAAA | -0.0959 |
| CAAGCACC | -0.222 |
| CTTACCTA | -0.193 |
| GACTCGAC | -0.0577 |
| ACCACACG | -0.17 |
| GCCTGGTA | -0.305 |
| CATGGAGG | -0.29 |
| CTAGCGCC | -0.0798 |
| GGTCTAAC | -0.0157 |
| AAGTGTGC | -0.0194 |
| CACTACCA | 0.00647 |
| GCTGTTAC | -0.0654 |
| AACCAACT | -0.108 |
| GTAGAGAC | -0.216 |
| ATTTGGTC | -0.00782 |
| ACATAACC | 0.124 |
| ACGCATCC | -0.0716 |
| CCTTTTGA | -0.133 |
| CAGCGTGG | -0.141 |
| CCGATCTC | 0.282 |
| CGGTACAG | 0.129 |
| CGGTTAAG | 0.0963 |

| Sequence | PBM E-score |
| --- | --- |
| AAGGACCT | -0.144 |
| AGTGAATC | -0.0302 |
| GCAAGAGC | -0.135 |
| GAATCCCC | 0.145 |
| CACATCCG | 0.309 |
| GCCAGTCA | -0.235 |
| ACTCAGTC | -0.221 |
| CGATGACG | 0.0955 |
| AGCATAAT | 0.00492 |
| GCCCTCTA | -0.208 |
| AAAACATG | -0.0175 |
| CAGTTACA | -0.0913 |
| ACGCTCAG | -0.197 |
| GCAGGGCA | -0.11 |
| CTCTCGAC | -0.219 |
| GCGATTCA | -0.106 |
| AGCTGATC | -0.0271 |
| CGACGGGA | 0.265 |
| AGTAGTAA | -0.124 |
| AGATATCG | -0.168 |
| AGGGACCG | -0.14 |
| CACTGTGA | -0.267 |
| CTCTTGAA | -0.182 |
| AATTAGAC | -0.202 |
| ATGACTAG | -0.27 |

| Sequence | PBM E-score |
| --- | --- |
| AGGAGCGA | -0.0963 |
| ATTGGTCA | -0.283 |
| ATCCGGCA | 0.369 |
| ATCATCGA | -0.0451 |
| TACGCAAA | -0.262 |
| ATAGAACG | 0.0158 |
| AGTCGAGA | -0.178 |
| TAGTGGCA | -0.163 |
| AAAGGCAG | -0.128 |
| CAACGATC | -0.0409 |
| TCAACGGA | 0.311 |
| GGTCGGCA | 0.186 |
| ACATCTTC | 0.204 |
| AAGAGGCT | -0.337 |
| GATCGCGC | 0.0937 |
| TCCCTAGA | -0.202 |
| CGTTCATA | -0.0883 |
| CAACCTGA | -0.248 |
| CACGATAA | 0.065 |
| CATGCCGC | 0.292 |
| ACCGTTAA | -0.0737 |
| GAGTTTGA | 0.138 |
| ACGGAAAC | 0.278 |
| ACCTGGCC | -0.0558 |
| CATATACG | -0.143 |

| Sequence | PBM E-score |
| --- | --- |
| ATTTATCG | 0.133 |
| CGAGTGCC | 0.0574 |
| AACAAGGA | -0.046 |
| GGAGCTCC | 0.348 |
| CCTGGGCG | -0.139 |
| GCATACTA | 0.0868 |
| CCTACCAG | -0.338 |
| CCTAGCTA | -0.246 |
| CCGGGTCA | 0.275 |
| CAGAAAGA | -0.122 |
| CACATTTA | -0.336 |
| TGAAATCA | 0.00132 |
| ACCGATGA | 0.102 |
| ATACAACC | -0.0329 |
| CCCATTCA | 0.086 |
| ACTTGAAA | 0.105 |
| AGGTTGTG | -0.229 |
| ATGGCCGC | 0.172 |
| CACGTAGA | -0.227 |
| CGTTTGGC | 0.0137 |
| GAACCCCA | 0.104 |
| CGACTAAC | 0.065 |
| AATTCCGC | 0.456 |
| AAAAGCAT | -0.132 |
| ATGACCAC | -0.129 |

| Sequence | PBM E-score |
| --- | --- |
| GATTCAAC | 0.168 |
| GTGCGGAA | 0.265 |
| GGACCATA | 0.0486 |
| AGGGACAC | -0.0392 |
| GGGGCTTA | 0.0287 |
| CAGTCTGC | -0.117 |
| AAACACCG | 0.39 |
| ACGATAGC | -0.0213 |
| AGCGACGC | -0.00634 |
| ACTTTAGA | -0.0897 |
| ACTTCACG | -0.163 |
| ACGCATTC | -0.00202 |
| CACAGATA | -0.257 |
| GACAGCGA | 0.0691 |
| GGATCACC | 0.0883 |
| CTTAATTC | 0.0471 |
| GGTTATTA | 0.0611 |
| ATCACCCA | -0.0389 |
| GTACGACA | -0.0993 |
| GGAATCCC | 0.201 |
| ACCTATTG | -0.19 |
| GCGGCTCC | 0.163 |
| AGCACCCG | 0.11 |
| CCGTGGCA | 0.0148 |
| CGCTTAGC | 0.0712 |

| Sequence | PBM E-score |
| --- | --- |
| ACGAATAT | -0.0546 |
| AGCTCTAT | -0.096 |
| AGGTAAAC | 0.0785 |
| CGTGCAAG | -0.0568 |
| CATATCCG | 0.289 |
| GAATCCAC | -0.141 |
| CAACGTGC | -0.0131 |
| ATATAGCG | -0.0634 |
| CTCCGTCC | 0.449 |
| AGCACCAT | -0.317 |
| AGCTGTCA | -0.248 |
| AACGGCTC | 0.136 |
| CGCCTTAG | 0.0604 |
| CTCCACTC | -0.228 |
| AACGCCCA | -0.0482 |
| CAGAAACC | -0.0224 |
| CGTTCGGA | 0.41 |
| CACAGGGA | -0.197 |
| CGTGCGTC | 0.2 |
| CATTCACC | 0.195 |
| CAAGGCTG | -0.256 |
| GGCAGTCA | -0.052 |
| AACGTACA | -0.094 |
| GGTAACTA | 0.134 |
| CGGCCGGC | 0.409 |

| Sequence | PBM E-score |
| --- | --- |
| CAGGAAAG | -0.211 |
| CCTAAAAG | -0.381 |
| ACGCGTGA | 0.0234 |
| ACTGTGGC | -0.32 |
| CCTAGCCC | -0.0868 |
| AAAGATGT | -0.153 |
| GAGGAGCC | -0.0931 |
| CGTTGATC | -0.0672 |
| CACAGGCA | -0.317 |
| AACGGAGA | 0.393 |
| ATATCGCG | 0.226 |
| CAATCTAA | -0.0716 |
| AGTGTATA | -0.232 |
| GAGTTCGC | 0.148 |
| ACTCCAGG | 0.00347 |
| GCTAGTAA | -0.103 |
| CGCGTGAG | 0.0538 |
| AGCGAGCT | -0.00642 |
| AGGTTCAC | -0.128 |
| AAACTACT | -0.0563 |
| GACCGGTA | 0.0914 |
| AACACGGG | -0.0478 |
